Results are given in words; binding and its absence hold for the method and conditions named. Binding seen in cells or lysates may run through a third protein. Some binding calls cover weakened binding; strength is not graded here.
Tests used:
[1] = target: V5-tagged latency-associated nuclear antigen (LANA) (Kaposi's sarcoma-associated herpesvirus (KSHV)) (UniProt Q9QR71); assay: co-IP; 293T cells expressing LANA-V5 and a 3xFLAG-tagged PRC factor; immunoprecipitation with V5 antibody, blots with V5 and FLAG antibodies; 0.5% NP40 lysis buffer (10mM Tris-HCl pH 8.0, 100mM NaCl, 1mM EDTA), 4°C
[2] = target: EZH2, endogenous in iSLK cells (human (endogenous in iSLK)) (UniProt Q15910); assay: co-IP; lysates of de novo KSHV infected iSLK cells (72 hpi); immunoprecipitation with anti-EZH2 rabbit antibody or normal rabbit IgG, blots with anti-LANA and anti-EZH2; 0.5% NP40 lysis buffer, 4°C

Sequences of proteins named here, by UniProt entry; tags and fusion partners are left off.
UniProt Q9QR71: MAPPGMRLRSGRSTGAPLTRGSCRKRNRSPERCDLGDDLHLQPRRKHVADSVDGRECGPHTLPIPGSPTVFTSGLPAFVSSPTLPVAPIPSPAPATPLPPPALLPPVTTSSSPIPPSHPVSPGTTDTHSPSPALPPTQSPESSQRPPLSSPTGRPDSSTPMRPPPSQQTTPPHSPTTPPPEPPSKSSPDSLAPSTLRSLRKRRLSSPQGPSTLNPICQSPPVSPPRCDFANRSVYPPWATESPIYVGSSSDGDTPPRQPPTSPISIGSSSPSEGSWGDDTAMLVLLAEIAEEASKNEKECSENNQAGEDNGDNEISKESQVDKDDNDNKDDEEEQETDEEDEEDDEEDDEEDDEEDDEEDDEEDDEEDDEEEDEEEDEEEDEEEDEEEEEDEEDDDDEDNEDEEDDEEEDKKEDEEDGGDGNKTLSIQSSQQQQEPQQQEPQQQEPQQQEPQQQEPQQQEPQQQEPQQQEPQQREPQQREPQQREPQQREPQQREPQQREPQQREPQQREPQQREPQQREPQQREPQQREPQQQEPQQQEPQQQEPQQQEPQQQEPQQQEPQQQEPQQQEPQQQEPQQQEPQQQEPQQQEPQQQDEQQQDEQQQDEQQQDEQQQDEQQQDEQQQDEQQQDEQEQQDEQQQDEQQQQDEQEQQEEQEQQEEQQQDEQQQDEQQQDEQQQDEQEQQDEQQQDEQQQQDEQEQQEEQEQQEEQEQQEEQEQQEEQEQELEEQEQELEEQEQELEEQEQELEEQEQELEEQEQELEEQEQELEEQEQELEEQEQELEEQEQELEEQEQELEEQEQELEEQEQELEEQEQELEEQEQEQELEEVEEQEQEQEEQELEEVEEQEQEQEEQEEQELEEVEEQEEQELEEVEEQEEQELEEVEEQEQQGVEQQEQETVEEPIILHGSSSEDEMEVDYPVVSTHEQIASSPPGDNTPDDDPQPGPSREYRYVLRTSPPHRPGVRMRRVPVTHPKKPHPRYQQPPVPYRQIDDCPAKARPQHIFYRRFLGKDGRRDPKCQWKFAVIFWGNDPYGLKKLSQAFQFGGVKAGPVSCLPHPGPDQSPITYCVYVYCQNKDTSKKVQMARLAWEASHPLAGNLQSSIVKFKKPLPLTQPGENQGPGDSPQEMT
UniProt Q15910: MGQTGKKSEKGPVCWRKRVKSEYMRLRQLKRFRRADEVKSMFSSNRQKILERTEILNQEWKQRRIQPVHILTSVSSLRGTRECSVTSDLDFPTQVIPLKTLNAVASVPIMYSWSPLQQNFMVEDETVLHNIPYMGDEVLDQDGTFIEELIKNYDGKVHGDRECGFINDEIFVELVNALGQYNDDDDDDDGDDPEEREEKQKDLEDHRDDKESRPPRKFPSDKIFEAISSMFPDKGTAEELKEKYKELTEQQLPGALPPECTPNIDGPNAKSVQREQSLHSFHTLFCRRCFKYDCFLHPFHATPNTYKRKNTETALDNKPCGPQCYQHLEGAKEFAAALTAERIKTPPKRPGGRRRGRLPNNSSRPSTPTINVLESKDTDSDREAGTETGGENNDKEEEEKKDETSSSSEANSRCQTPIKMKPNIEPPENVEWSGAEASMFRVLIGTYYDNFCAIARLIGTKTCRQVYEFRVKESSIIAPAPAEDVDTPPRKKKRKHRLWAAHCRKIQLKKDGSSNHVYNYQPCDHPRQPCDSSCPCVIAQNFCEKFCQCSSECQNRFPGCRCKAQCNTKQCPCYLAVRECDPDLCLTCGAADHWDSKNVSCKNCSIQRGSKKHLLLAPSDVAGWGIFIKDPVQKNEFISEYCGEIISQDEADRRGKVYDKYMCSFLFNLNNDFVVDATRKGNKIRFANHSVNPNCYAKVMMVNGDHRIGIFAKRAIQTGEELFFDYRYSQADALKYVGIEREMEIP
UniProt P35226: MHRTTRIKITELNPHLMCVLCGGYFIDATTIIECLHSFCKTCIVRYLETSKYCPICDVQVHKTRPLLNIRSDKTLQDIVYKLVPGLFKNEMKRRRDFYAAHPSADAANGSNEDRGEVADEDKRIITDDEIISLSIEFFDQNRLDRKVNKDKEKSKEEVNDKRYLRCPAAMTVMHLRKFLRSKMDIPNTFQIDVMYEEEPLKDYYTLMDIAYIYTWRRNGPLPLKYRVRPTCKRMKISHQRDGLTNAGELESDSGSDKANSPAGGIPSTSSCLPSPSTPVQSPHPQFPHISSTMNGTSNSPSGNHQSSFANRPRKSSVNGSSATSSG
UniProt O75530: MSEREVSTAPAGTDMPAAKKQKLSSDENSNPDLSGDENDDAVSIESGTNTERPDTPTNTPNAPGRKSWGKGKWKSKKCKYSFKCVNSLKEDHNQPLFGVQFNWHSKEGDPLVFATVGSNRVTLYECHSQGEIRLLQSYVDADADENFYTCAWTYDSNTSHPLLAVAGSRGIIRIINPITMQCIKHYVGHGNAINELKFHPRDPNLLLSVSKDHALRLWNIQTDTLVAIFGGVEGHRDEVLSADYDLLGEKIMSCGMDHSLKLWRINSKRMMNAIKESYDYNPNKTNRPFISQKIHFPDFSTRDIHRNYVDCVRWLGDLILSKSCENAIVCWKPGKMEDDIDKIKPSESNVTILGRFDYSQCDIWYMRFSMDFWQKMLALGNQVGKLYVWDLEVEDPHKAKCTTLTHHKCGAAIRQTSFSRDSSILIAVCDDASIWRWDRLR
UniProt Q99496: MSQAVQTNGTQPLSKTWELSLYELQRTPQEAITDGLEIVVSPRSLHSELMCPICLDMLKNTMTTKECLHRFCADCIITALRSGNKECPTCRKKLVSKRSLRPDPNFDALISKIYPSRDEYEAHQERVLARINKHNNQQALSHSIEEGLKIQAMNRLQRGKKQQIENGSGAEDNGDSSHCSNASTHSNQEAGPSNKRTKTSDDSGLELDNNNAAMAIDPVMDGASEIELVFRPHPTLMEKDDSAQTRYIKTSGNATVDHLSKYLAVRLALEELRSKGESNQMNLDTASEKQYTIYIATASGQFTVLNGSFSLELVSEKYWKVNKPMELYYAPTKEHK
UniProt Q15022: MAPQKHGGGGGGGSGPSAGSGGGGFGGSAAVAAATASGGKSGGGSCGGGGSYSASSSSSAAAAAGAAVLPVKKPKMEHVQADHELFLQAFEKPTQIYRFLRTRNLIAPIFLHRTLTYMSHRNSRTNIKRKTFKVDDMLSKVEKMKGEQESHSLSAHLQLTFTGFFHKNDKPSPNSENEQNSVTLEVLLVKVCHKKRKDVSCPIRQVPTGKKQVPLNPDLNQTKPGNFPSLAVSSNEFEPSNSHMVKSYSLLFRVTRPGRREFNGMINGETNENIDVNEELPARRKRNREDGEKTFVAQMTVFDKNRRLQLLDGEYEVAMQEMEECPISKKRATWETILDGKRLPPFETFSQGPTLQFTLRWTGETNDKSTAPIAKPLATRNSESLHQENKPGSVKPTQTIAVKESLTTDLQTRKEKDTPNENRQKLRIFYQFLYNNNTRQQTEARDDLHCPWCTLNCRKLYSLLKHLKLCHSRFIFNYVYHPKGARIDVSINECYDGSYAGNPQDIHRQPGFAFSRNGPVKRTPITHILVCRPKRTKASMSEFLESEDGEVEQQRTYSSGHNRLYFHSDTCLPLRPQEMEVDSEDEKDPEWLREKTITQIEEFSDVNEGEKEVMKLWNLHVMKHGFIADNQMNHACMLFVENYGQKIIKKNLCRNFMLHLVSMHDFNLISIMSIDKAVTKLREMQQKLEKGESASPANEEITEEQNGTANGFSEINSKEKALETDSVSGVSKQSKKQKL

| Substance | binding [1] | binding [2] |
| --- | --- | --- |
| 3xFLAG-tagged BMI-1 (from UniProt P35226 1-326) | no binding | – |
| 3xFLAG-tagged EED (from UniProt O75530 1-441) | binds | – |
| 3xFLAG-tagged RING1B (from UniProt Q99496 1-336) | no binding | – |
| 3xFLAG-tagged SUZ12 (from UniProt Q15022 1-739) | binds | – |
| latency-associated nuclear antigen (LANA) expressed from the KSHV genome in infected iSLK cells (from UniProt Q9QR71 1-1129) | – | binds |

From paper PMC5015872
